This is one part of the list. The full chains were built here from the parent and the listed change. Values near 0.05 are background.
B1: TEV protease; numbered along this chain (parent)
chain: MGESLFKGPRDYNPISSSICHLTNESDGHTTSLYGIGFGPFIITNKHLFRRNNGTLVVQSLHGVFKVKDTTTLQQHLVDGRDMIIIRMPKDFPPFPQKLKFREPQREERICLVTTNFQTKSMSSMVSDTSCTFPSGDGIFWKHWIQTKDGQCGSPLVSTRDGFIVGIHSASNFTNTNNYFTSVPKNFMELLTNQEAQQWVSGWRLNADSVLWGGHKVFMVKPEEPFQPVKEATQL

Variants of: B1
Experiment: raw area under fraction-flipped curve 0-4 h after induction (AUC4h, not background-subtracted), DNA-recorder readout of cleavage of the substrate (dimensionless); higher = more cleavage of the substrate by the protease variant
Details: temperature: 34 °C; time window: 0-4 h after rhamnose induction
Protocol: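 In vivo DNA recorder in E. coli TOP10(DE3) ΔrhaA at 34 °C. Each TEVp single-site mutant (parent TEVp 0) is paired with a single-site variant of the 7-mer TEVs (canonical ENLYFQ|S). The substrate sits between flexible linkers in a Bxb1-sfGFP-TEVs-SsrA fusion, so cleavage stabilises Bxb1 and speeds flipping of a recombination array, read by NGS. The value is the raw area under the fraction-flipped curve over 0-4 h after rhamnose induction (AUC4h), with ≥20 reads per time point. It is not background-subtracted; inactive controls average about 0.047.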
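Further: Bxb1 expression induced with 0.2% (w/v) L-rhamnose at OD600 near 0.5, cultures sampled hourly, flipped fraction per protease–substrate barcode pair counted by paired-end Illumina sequencing.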

Variant | area with substrate ENAYFQS | area with substrate ENCYFQS | area with substrate ENDYFQS | area with substrate ENEYFQS | area with substrate ENGYFQS | area with substrate ENHYFQS | area with substrate ENNYFQS | area with substrate ENPYFQS | area with substrate ENQYFQS | area with substrate ENRYFQS | area with substrate ENSYFQS | area with substrate ENTYFQS | area with substrate ENVYFQS | area with substrate ENYYFQS | area with substrate ENFYFQS | area with substrate ENIYFQS | area with substrate ENWYFQS | area with substrate ENMYFQS | area with substrate ENKYFQS
Q105G | 0.0678 | 0.0598 | 0.0617 | 0.0827 | 0.0665 | 0.0586 | 0.0743 | 0.0605 | 0.0618 | 0.0684 | 0.0548 | 0.0586 | 0.073 | 0.0429 | – | – | – | – | –
I164Y | 0.0504 | 0.0601 | 0.049 | 0.0517 | – | – | 0.0647 | – | – | 0.0421 | 0.0643 | 0.0584 | 0.0427 | – | 0.0386 | 0.0463 | 0.077 | – | –
I19F | 0.0573 | 0.065 | 0.0601 | 0.0534 | 0.0566 | 0.0677 | 0.0581 | – | 0.0555 | 0.0695 | 0.0626 | 0.0589 | 0.0701 | 0.0492 | – | 0.0729 | 0.0549 | 0.0667 | –
R81L | 0.0679 | – | – | 0.0702 | 0.0621 | 0.0626 | 0.0656 | – | 0.0723 | – | 0.0666 | – | 0.0736 | 0.0953 | 0.0529 | 0.101 | – | 0.0615 | –
G166N | 0.0625 | 0.0721 | – | 0.0596 | – | 0.0599 | 0.061 | – | 0.0633 | 0.0287 | – | 0.0474 | 0.062 | 0.0459 | 0.0534 | 0.0595 | – | – | 0.0546
E223C | 0.0675 | 0.0712 | 0.0532 | 0.0438 | 0.0643 | – | 0.0465 | 0.0583 | 0.0591 | – | 0.0897 | 0.0526 | 0.0398 | 0.0665 | 0.0632 | 0.119 | – | – | 0.0778
E223R | 0.0631 | 0.0654 | 0.0547 | 0.0718 | 0.0802 | – | 0.0911 | 0.0615 | 0.0604 | 0.0647 | 0.0599 | 0.0554 | 0.0714 | 0.0562 | 0.0569 | 0.0952 | – | 0.0779 | 0.0641
I43T | 0.0533 | 0.0595 | 0.0648 | 0.0675 | 0.0603 | – | 0.0729 | – | 0.0452 | 0.0527 | 0.0585 | 0.0588 | 0.0485 | 0.0571 | 0.0526 | 0.071 | – | 0.0467 | 0.0613
I43C | 0.058 | 0.0667 | 0.0225 | 0.063 | 0.0523 | – | 0.0708 | 0.0647 | 0.0578 | 0.0223 | 0.0648 | 0.0587 | 0.0684 | – | – | – | 0.0578 | 0.0629 | 0.0611
H215E | 0.0381 | 0.0594 | – | 0.0611 | 0.0665 | 0.0592 | 0.0531 | – | 0.0648 | 0.0509 | 0.0647 | 0.0597 | 0.0515 | – | 0.04 | 0.048 | – | – | 0.0846
S123V | 0.0516 | 0.0555 | 0.0676 | 0.0707 | – | 0.0594 | 0.0611 | – | 0.0587 | 0.0585 | 0.0522 | – | 0.0924 | 0.0709 | 0.0615 | 0.116 | – | 0.0796 | 0.0793
K68Q | 0.0621 | 0.0615 | – | 0.061 | 0.045 | 0.0651 | – | – | – | 0.0612 | 0.0636 | – | 0.0755 | – | 0.0676 | 0.11 | – | 0.0901 | –
K68E | 0.0565 | 0.0572 | 0.0416 | 0.0525 | – | – | 0.106 | 0.0634 | 0.0603 | 0.071 | 0.059 | – | 0.0829 | 0.0855 | 0.0567 | – | – | – | –

Source: the supplement of paper PMC12217912
